Measured values reported in paper PMC4336329 (PLoS ONE, 2015).
Screen size: about 310,000 compounds; about 14,000 (4.5%) showed an effect of 50% or more. Effects have a minus sign here. This is one part of the list.

These compounds were tested against human ether-à-go-go-related gene (hERG) potassium channel (human, UniProt Q12809) (assay: primary screen, population patch clamp on CHO cells stably expressing hERG).
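Further: peak tail current of the secondary pulse compared with the same well before compound.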

Sequence of human ether-à-go-go-related gene (hERG) potassium channel (Q12809 whole entry, looked up): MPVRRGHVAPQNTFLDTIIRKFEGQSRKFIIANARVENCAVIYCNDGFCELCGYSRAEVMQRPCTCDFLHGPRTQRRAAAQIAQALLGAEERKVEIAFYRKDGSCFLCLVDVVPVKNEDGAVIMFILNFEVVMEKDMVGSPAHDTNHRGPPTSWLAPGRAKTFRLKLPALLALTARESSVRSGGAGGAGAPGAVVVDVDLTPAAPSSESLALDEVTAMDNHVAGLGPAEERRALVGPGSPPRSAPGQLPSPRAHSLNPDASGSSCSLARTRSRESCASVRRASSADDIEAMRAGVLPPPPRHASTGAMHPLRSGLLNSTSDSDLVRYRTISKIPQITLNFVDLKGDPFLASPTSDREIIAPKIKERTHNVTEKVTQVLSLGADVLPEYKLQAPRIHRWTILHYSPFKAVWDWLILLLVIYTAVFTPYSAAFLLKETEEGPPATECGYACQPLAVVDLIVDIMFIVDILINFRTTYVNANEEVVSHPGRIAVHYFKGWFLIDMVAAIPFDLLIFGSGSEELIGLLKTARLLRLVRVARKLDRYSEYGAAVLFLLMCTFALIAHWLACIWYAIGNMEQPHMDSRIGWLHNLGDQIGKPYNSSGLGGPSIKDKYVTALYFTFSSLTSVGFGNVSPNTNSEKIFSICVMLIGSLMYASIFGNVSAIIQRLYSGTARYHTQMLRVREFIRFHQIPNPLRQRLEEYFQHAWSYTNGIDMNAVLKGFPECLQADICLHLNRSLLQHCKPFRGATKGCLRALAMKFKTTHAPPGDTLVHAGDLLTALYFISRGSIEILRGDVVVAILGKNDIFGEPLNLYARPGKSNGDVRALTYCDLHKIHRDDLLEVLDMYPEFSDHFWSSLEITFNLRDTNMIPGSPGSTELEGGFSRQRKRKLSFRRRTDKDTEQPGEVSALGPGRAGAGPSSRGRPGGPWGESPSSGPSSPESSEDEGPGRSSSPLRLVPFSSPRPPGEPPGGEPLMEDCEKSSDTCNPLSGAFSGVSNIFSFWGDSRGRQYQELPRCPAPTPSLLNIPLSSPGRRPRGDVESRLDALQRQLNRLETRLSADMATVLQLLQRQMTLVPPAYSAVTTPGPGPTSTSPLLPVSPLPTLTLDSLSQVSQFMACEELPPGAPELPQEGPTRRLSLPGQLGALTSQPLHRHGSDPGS

Structure (SMILES) | hERG current change (%, negative = inhibition) at 10uM [%]
CCOc1ccc(NC(=O)Cn2cc(C(=O)c3ccco3)c3ccccc32)cc1 | -11.4
COc1nc(-c2ccccc2)cc(-c2ccc3c(c2)OCO3)c1C#N | 1.15
Cc1nc(SCc2ccc([N+](=O)[O-])cc2)n[nH]1 | 2.06
CCC(Sc1nnnn1C)C(=O)Nc1ccc(C(C)=O)cc1 (stereo not shown) | 3.53
O=C(CN1CCCC1)Nc1ccc(Br)cc1[N+](=O)[O-] | 3.99
COc1ccccc1OCCCn1cc(C#N)c2ccccc21 | -11.8
CCOC(=O)c1c(CSc2ccc(C)cc2)oc2ccc(O)cc12 | -1.59
Cc1ccc(S(=O)(=O)NCC(C)n2cncn2)cc1 (stereo not shown) | -0.384
COc1ccc(C(CNC(=S)NCc2ccccc2)N2CCCC2)cc1 (stereo not shown) | -28.4
C#CCNC(=O)C1=C[C@@H](C(C)(C)C)C[C@@H](OCc2ccc(CO)cc2)O1 | 10.8
CCn1c(COc2cccc(C)c2)nnc1SCC(=O)N1CCCC1 | -14.9
CCCCC(C(=O)N/N=C/c1ccccn1)C(=O)N/N=C/c1ccccn1 | 8.01
Cc1nnc(SCC(=O)N2CCCc3ccccc32)[nH]c1=O | 9.48
O=[N+]([O-])c1ccc(C(O)CN2CCOCC2)cc1 (stereo not shown) | 18.5
Cc1noc(NS(=O)(=O)c2ccc(NC(=O)Cc3ccc([N+](=O)[O-])cc3)cc2)c1C | 13.3
COc1ccc(N2CC(C)Cn3c2nc2c3c(=O)n(Cc3ccccc3)c(=O)n2C)c(OC)c1 (stereo not shown) | -39.9
COc1ccc(-c2ccc(C#N)c(SCC(=O)OCc3ccccc3)n2)cc1OC | -2.31
NNC(=O)c1cc2ccccc2cc1NS(=O)(=O)c1ccccc1 | 13.1
O=c1[nH]c(=O)n(C2CCCCCC2)c(O)c1C=NCc1cccnc1 | -9.79
Cc1ccc(Cn2cnc3ccccc32)cc1 | 3.41
CCC(NC(=O)C1CCCC1)c1ccccc1 (stereo not shown) | 17.9
Cc1nc2ccc(NC(=O)c3ccco3)cc2nc1C | 2.94
Cc1ccc(-c2ccc(S(=O)(=O)N3CCCC3)cc2)cc1 | 23.9
COC(=O)c1ccc(Oc2nc(NC(C)(C)C)nc(N3CCOCC3)n2)cc1 | -16.1
O=C(Nc1nnc(S(=O)(=O)N2CCN(c3ccc(F)cc3)CC2)s1)c1ccco1 | 14.9
